What is called pIC50 is the negative decadic logarithm of the IC50, by convention in mol/L.

pIC50: −log10 of the molar value.

Chain of UniProt O14744 (O14744 whole entry): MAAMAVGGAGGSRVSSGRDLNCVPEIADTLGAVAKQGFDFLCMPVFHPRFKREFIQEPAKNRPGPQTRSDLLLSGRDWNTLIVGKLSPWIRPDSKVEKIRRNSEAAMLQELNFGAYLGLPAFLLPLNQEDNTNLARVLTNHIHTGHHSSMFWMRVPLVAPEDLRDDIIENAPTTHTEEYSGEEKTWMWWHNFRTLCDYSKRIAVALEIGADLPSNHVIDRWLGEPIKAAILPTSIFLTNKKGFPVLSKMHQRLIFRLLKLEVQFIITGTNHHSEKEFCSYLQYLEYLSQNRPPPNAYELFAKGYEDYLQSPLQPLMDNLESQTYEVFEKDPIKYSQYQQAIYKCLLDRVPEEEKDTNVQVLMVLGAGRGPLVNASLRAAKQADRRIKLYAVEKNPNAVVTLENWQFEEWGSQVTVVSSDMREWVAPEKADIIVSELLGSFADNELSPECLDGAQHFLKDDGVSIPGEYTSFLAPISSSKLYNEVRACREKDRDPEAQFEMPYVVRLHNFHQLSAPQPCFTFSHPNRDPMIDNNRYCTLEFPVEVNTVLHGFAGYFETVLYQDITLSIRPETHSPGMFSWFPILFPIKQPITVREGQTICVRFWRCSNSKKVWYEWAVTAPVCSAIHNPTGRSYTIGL
Chain of UniProt O14744 (Q9BQA1 whole entry partner): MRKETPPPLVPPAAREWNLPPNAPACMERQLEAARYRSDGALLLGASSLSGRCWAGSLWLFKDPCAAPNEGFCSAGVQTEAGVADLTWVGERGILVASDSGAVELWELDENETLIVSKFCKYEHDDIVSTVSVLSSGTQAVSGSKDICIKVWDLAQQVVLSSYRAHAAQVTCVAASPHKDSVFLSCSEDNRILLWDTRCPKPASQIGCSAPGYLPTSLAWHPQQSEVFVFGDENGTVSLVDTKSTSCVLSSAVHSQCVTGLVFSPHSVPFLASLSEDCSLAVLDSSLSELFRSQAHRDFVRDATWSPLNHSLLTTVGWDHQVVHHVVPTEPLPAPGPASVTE

For the experiment, the target named is PRMT5/MEP50 Complex (Homo sapiens (Human), UniProt O14744). As to the kind of experiment: PRMT5 inhibition based on TR-FRET assay. It counts as biochemical. The following applies: 32 nM PRMT5:MEP50, 50 nM Histone-H4 peptide, 1 μM SAM. The text has this: PRMT5 Inhibition Based on TR-FRET Assay:
Protein arginine methyltransferase 5 (PRMT5) is a type II arginine methyltransferase that catalyze mono- and symmetric demethylation on arginine residues of histone or non-histone proteins in presence of S-adenosylmethionine (AdoMet or SAM) a cofactor responsible for donating the methyl group. PRMT5 is reported to be overexpressed in several human cancers. To identify compounds that inhibit the PRMT5 and decrease its activity, a TR-FRET based assay has been established. Time-resolved fluorescence resonance energy transfer (TR-FRET) HTS assays are homogeneous proximity assays where the interaction of two dye-labeled binding partners is detected by the energy transfer between a donor and an acceptor dye and the subsequent light emission by the acceptor dye. PRMT5 catalyzes Histone H4 peptide which is biotin tagged to the Lysine amino acid at carboxyl end, in presence of S-adenosyl-1-methionine (SAM) to methylate the peptide. The antibody specific to mono methylated H4 peptide (H4R3) with Ig conjugate binds to the methylated peptide, indirectly binding to the Europium lanthanide. SureLight Allophycocyanin-Streptavidin binds to the biotin tag of the peptide, therefore accepting the energy transferred from the Europium lanthanide. This energy transfer between Europium to SureLight Allophycocyanin is a direct measure of the activity/inhibition of the PRMT5 enzyme.
Assay buffer: 20 mM BICINE (pH 7.6), 25 mM NaCl, 2 mM DTT, 0.01% Tween-20 and 0.01% BSA.
The compound dilutions were prepared as 7.5% DMSO stock solutions in assay buffer. To 2 μL (7.5×) of test compound, 5 μL of PRMT5 enzyme prepared in assay buffer (Final concentration of 32 nM in 15 μL reaction volume) was added and allowed for 30 minutes pre-incubation time in a white polystyrene 384-well plate at room temperature. […] The plates were then read on Victor-3 with Excitation at 340 nm and Emissions collected at 615 and 665 nm in TR-FRET protocol. […]
On the technique in general: Time-resolved FRET reads energy transfer from a long-lived donor to a nearby acceptor.
As for `Cc1ccc(CN2CCN(CC(O)CN3CCc4ccccc4C3)C2=O)cc1` (single isomer, unassigned) [Example 15a, 1-(3-(3,4-Dihydroisoquinolin-2(1H)-yl)-2-hydroxypropyl)-3-(4-methyl-benzyl)imidazolidin-2-one], the negative-log IC50 (pIC50) was under 5.30.
Compound `Cc1ccc(CN2CCN(CC(O)CN3CCc4ccccc4C3)C2=O)cc1` (single isomer, unassigned) [Example 15b, 1-(3-(3,4-Dihydroisoquinolin-2(1H)-yl)-2-hydroxypropyl)-3-(4-methyl-benzyl)imidazolidin-2-one] showed a pIC50 of 7.30.
Compound `Cc1ccc(CN2CCN(CC(O)CN3CCc4ccccc4C3)C2=O)cc1` (stereo not drawn) [Example 15, 1-(3-(3,4-Dihydroisoquinolin-2(1H)-yl)-2-hydroxypropyl)-3-(4-methyl-benzyl)imidazolidin-2-one] showed a negative logarithm of the IC50 (pIC50) of 6.51. Compared with the last compound, the pIC50 is 0.79 log units lower.

Values taken from US11365205B2 (Aurigene Discovery Technologies Limited, priority 2018, dated 2022).
